{"sequences": {"note": "Amino acid sequences for entries named in this document (tags omitted).", "UniProt Q99814": "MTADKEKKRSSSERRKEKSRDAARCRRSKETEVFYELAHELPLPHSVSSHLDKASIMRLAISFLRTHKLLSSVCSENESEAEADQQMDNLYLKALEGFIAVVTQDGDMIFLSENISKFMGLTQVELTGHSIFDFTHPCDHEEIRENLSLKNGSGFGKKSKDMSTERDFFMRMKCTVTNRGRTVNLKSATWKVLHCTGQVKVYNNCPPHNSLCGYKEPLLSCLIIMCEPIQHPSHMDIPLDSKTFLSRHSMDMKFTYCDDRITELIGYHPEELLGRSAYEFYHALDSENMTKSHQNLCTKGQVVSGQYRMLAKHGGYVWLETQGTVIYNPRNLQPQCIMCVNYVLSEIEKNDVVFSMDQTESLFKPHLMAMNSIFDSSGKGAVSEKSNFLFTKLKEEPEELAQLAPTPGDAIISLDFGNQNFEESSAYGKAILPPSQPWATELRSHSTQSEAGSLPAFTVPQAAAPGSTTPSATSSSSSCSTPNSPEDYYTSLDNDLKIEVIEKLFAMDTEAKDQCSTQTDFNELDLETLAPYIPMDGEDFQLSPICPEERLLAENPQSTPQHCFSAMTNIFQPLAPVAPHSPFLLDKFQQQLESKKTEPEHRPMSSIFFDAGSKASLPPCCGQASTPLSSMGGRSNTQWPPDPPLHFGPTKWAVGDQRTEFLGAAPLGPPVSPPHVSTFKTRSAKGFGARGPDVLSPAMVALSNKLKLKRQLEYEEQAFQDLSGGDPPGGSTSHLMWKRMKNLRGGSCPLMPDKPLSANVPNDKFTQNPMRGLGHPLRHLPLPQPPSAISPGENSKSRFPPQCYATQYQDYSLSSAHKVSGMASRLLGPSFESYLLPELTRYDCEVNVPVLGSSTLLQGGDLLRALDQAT", "UniProt Q13263": "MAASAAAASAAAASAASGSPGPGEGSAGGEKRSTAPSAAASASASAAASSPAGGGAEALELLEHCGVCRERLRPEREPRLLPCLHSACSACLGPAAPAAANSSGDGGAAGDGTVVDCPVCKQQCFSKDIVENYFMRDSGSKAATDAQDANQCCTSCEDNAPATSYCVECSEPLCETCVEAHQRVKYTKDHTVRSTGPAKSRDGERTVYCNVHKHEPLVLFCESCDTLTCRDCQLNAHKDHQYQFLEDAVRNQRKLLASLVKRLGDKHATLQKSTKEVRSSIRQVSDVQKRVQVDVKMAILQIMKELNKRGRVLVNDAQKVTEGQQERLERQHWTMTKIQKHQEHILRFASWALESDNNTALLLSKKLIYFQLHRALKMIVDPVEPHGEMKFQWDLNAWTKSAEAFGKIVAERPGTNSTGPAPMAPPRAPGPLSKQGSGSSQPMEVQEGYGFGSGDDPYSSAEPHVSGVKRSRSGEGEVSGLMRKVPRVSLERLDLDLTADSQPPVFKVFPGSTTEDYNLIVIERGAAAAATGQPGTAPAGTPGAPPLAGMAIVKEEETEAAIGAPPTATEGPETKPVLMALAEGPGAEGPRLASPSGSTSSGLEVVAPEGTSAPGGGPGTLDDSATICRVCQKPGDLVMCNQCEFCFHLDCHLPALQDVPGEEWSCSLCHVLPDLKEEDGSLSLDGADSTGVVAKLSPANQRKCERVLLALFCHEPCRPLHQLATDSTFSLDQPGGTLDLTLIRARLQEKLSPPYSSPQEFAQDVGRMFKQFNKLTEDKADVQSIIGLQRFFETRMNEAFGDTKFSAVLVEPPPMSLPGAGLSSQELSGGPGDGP", "UniProt P50750": "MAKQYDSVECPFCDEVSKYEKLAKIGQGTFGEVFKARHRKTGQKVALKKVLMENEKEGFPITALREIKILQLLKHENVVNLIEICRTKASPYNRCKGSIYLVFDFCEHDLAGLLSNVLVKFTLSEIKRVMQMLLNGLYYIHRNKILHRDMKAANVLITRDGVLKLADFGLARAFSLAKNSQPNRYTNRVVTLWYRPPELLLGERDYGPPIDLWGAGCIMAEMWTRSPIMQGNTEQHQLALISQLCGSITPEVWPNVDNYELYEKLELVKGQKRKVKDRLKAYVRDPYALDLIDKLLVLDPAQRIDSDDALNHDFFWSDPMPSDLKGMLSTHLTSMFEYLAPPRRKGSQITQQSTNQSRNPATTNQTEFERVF", "UniProt P78527": "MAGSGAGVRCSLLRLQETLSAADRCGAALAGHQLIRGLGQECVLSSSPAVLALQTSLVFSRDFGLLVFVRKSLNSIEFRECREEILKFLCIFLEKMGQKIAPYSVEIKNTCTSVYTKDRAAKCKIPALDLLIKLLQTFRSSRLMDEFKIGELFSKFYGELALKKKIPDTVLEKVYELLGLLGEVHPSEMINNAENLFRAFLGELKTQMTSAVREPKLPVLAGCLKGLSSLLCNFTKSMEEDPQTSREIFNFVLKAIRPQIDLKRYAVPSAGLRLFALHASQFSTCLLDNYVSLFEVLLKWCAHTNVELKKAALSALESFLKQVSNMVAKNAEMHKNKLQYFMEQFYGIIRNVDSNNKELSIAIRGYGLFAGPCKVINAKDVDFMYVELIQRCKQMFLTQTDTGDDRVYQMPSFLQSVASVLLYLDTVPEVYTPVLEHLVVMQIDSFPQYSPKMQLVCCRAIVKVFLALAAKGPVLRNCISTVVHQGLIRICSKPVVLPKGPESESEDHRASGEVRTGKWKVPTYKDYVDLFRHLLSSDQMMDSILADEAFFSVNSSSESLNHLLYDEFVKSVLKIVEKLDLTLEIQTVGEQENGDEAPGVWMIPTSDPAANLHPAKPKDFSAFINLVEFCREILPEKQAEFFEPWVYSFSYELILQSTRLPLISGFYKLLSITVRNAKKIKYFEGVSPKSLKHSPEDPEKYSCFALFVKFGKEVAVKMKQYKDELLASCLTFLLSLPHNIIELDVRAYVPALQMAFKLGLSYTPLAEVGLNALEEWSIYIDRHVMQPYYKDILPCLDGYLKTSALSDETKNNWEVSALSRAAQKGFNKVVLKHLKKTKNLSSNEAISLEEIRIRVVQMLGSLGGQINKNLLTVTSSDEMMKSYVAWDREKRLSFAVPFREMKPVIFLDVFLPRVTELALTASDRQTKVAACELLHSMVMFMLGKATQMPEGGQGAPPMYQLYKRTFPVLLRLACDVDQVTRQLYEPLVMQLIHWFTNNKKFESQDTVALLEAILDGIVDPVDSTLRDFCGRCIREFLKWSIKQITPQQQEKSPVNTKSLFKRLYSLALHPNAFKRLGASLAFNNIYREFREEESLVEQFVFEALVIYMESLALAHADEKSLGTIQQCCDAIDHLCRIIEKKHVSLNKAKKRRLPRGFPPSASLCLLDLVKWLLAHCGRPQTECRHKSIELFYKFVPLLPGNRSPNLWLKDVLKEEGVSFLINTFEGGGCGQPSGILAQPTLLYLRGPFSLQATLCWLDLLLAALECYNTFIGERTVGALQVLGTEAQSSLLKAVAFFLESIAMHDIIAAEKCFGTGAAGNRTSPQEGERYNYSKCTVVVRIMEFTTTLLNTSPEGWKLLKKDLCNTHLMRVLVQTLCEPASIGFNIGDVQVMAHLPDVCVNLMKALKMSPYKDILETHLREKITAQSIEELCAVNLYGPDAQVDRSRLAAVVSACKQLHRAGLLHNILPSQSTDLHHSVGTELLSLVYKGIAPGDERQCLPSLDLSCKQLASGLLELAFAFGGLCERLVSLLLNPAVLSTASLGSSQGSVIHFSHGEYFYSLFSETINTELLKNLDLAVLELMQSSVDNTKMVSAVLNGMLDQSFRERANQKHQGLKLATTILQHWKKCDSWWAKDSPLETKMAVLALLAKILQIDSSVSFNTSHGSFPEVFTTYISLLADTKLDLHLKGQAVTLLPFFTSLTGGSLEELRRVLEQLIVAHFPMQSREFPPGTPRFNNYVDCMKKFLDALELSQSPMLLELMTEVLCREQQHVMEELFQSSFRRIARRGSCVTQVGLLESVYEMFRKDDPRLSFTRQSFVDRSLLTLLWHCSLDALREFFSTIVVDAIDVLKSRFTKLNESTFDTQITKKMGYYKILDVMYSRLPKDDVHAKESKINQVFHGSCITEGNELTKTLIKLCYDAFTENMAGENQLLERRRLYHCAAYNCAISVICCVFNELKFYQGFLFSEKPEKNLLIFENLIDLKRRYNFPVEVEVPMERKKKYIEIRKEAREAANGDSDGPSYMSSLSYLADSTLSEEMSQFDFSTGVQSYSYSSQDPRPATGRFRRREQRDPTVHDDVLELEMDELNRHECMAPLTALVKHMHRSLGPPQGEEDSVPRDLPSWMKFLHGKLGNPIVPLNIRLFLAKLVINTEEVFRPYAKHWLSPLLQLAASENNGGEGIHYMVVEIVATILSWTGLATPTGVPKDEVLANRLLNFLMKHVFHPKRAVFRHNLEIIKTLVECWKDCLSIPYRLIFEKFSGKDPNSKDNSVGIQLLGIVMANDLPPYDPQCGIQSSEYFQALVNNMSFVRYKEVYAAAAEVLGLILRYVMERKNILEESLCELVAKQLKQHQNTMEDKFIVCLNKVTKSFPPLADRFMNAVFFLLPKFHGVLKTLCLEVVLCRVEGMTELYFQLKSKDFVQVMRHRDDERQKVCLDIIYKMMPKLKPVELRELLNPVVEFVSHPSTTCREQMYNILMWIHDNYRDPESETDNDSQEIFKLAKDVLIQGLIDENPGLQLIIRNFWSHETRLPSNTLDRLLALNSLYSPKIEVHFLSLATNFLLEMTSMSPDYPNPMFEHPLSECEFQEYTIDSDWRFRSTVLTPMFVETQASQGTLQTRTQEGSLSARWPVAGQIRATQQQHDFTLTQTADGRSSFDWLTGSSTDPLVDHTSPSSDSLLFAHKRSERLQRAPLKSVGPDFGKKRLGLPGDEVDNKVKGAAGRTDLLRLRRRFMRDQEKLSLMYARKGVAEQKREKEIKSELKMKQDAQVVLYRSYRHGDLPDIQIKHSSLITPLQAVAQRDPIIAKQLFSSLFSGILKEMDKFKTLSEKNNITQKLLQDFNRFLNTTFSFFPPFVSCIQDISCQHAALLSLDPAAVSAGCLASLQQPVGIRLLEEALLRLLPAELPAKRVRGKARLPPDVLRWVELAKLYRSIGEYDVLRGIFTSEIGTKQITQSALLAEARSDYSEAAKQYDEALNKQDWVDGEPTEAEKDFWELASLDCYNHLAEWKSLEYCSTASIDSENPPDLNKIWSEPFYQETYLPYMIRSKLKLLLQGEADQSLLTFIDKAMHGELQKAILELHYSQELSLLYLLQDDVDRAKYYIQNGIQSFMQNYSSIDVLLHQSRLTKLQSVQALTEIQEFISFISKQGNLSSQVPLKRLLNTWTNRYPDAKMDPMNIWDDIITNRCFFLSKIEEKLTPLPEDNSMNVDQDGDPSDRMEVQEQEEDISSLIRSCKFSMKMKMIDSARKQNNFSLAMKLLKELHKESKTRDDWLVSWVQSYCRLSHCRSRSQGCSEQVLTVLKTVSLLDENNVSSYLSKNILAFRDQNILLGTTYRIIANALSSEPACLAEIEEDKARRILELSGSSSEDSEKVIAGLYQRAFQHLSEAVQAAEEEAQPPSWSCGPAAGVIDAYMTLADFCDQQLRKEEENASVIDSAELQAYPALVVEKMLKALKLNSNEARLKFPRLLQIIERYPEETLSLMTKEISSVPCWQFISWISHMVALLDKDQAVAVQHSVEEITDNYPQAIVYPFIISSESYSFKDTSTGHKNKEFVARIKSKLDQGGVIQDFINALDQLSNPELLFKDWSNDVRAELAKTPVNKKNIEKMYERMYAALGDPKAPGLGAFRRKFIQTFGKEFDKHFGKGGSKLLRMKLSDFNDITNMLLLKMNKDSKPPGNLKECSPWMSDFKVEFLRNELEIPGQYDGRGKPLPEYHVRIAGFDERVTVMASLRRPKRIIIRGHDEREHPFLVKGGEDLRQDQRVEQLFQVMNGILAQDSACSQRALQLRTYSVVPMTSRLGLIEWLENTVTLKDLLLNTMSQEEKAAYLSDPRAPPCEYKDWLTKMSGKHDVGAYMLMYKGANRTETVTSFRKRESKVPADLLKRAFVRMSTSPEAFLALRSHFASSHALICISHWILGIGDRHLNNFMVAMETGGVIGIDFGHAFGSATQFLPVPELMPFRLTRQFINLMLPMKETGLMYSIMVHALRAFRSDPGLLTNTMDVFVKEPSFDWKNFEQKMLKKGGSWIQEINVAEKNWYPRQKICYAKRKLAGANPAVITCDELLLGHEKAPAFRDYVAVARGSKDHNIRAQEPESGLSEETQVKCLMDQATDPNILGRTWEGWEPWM"}, "source": "paper PMC8760265", "key": {"[1]": {"target": "Hypoxia-inducible factor-1α (HIF-1α) (human (endogenous in MDA-MB-231)) (UniProt Q16665)", "experiment": "co-IP; endogenous proteins, whole cell lysate of MDA-MB-231 cells (also NTC and HIF-1α/HIF-2α double-knockdown subclones) exposed to 1% O2 for 8 h; IP with HIF-1α or TRIM28 Ab or IgG; lysis buffer 150 mM NaCl, 50 mM HEPES pH 7.9, 1% IGEPAL; immunoblot"}, "FLAG-HIF-2α": {"target": "FLAG-HIF-2α (UniProt Q99814)", "experiment": "co-IP; MDA-MB-231 cells transfected with FLAG-HIF-2α vector, 1% O2 for 8 h; IP with FLAG Ab or IgG; endogenous partners by immunoblot"}, "[2]": {"target": "Hypoxia-inducible factor-1α (HIF-1α) (human (endogenous in MDA-MB-231)) (UniProt Q16665)", "experiment": "condition: only cells exposed to 20% O2 (no hypoxia); co-IP; endogenous proteins, whole cell lysate of MDA-MB-231 cells exposed to 20% O2 for 8 h; IP with HIF-1α Ab; immunoblot"}, "[3]": {"target": "Tripartite motif containing protein 28 (TRIM28) (human (endogenous in MDA-MB-231 and SUM159)) (UniProt Q13263)", "experiment": "co-IP; endogenous proteins, whole cell lysate of MDA-MB-231 cells (also NTC and HIF-1α/HIF-2α double-knockdown subclones) exposed to 1% O2 for 8 h; IP with HIF-1α or TRIM28 Ab or IgG; lysis buffer 150 mM NaCl, 50 mM HEPES pH 7.9, 1% IGEPAL; immunoblot"}, "FLAG-CDK9": {"target": "FLAG-CDK9 (UniProt P50750)", "experiment": "co-IP; SUM159 cells co-transfected with FLAG-CDK9 and HA-tagged TRIM28-WT, -S824A or -S824D; IP with FLAG Ab or HA Ab; immunoblot"}, "FLAG-HIF-1α (531–826)": {"target": "FLAG-HIF-1α (531–826) (UniProt Q16665)", "experiment": "co-IP; two tagged proteins co-expressed in MDA-MB-231 cells; IP with FLAG Ab (Fig. 1F, 1G; antibody not told for Supplementary Fig. 1D); immunoblot"}, "[4]": {"target": "CDK9 (endogenous) (human (endogenous in SUM159)) (UniProt P50750)", "experiment": "co-IP; endogenous proteins, SUM159 cells exposed to 20% or 1% O2 for 8 h; IP with KU70, KU86, CDK9, total TRIM28 or p-S824-TRIM28 Ab; immunoblot"}}, "note": "No constants are given. Whether binding was seen depends on the method and setting. In cells and extracts the contact can be indirect. Some entries that bind do so weakly or less than the wild type.", "data": [{"substance": "KU86 (from UniProt P13010 1-732)", "values": [{"measurement": "binding", "setting": "[1]", "result": "binds"}, {"measurement": "binding", "setting": "FLAG-HIF-2α", "result": "binds"}, {"measurement": "binding", "setting": "[2]", "result": "no binding"}]}, {"substance": "Hypoxia-inducible factor-1α (HIF-1α) (from UniProt Q16665 1-826)", "values": [{"measurement": "binding", "setting": "[3]", "result": "binds"}]}, {"substance": "HA-tagged TRIM28 (wild type) (from UniProt Q13263 1-835)", "values": [{"measurement": "binding", "setting": "FLAG-CDK9", "result": "binds"}, {"measurement": "binding", "setting": "FLAG-HIF-1α (531–826)", "result": "binds"}]}, {"substance": "DNA-dependent protein kinase catalytic subunit (DNA-PKcs) (from UniProt P78527 1-4128)", "values": [{"measurement": "binding", "setting": "[1]", "result": "binds"}, {"measurement": "binding", "setting": "FLAG-HIF-2α", "result": "binds"}, {"measurement": "binding", "setting": "[2]", "result": "no binding"}]}, {"substance": "Tripartite motif containing protein 28 (TRIM28) (from UniProt Q13263 1-835)", "values": [{"measurement": "binding", "setting": "[1]", "result": "binds"}, {"measurement": "binding", "setting": "FLAG-HIF-2α", "result": "binds"}, {"measurement": "binding", "setting": "[2]", "result": "no binding"}]}, {"substance": "KU70 (from UniProt P12956 1-609)", "values": [{"measurement": "binding", "setting": "[1]", "result": "binds"}, {"measurement": "binding", "setting": "FLAG-HIF-2α", "result": "binds"}, {"measurement": "binding", "setting": "[2]", "result": "no binding"}]}, {"substance": "TRIM28 phosphorylated at S824 (endogenous) (from UniProt Q13263 1-835)", "values": [{"measurement": "binding", "setting": "[4]", "result": "binds"}]}]}
